About 50,000 (12%) of roughly 420,000 compounds were called active. The inconclusive results got no clear call from the source; some entries with a clear call stand among them for comparison. Calls come from the whole dose curve; as a rule, active = well fitted inhibition curve with a large enough effect; inconclusive = small, poorly fitted or top-dose-only effect; inactive = flat fitted curve, though single readings scatter. No potency is given beside an inconclusive call; the fits are too rough.
Assay: qHTS for Inhibitors of human tyrosyl-DNA phosphodiesterase 1 (TDP1): qHTS in cells in presence of CPT; note: nearly all actives have a fitted effect of over 55% in size
Settings: chicken DT40 Tdp1-/-;hTDP1 cells + 20 nM CPT, ATP luminescence, 48 h; activity change, negative = growth inhibition: at 46.2 µM (top of the series)
Method in brief: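 Cell growth measured by CellTiter-Glo luminescence after a minimum 48 h, 37 C compound exposure with 20 nM CPT in Tdp1-knockout DT40 cells stably expressing hTDP1, seeded 400/well; qHTS titration format.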
For `O=S(=O)(Nc1c(O)ccc2ccccc12)c1ccccc1`, the Potency was inconclusive [inhibitor, single point].
In the case of `O=C(Cc1cccc(NC(=O)C2CCCN(C(=O)C3CCC3)C2)c1)Nc1ccc(C(=O)N2CCCCC2)cc1` (stereo not given), the Potency is reported as inconclusive [inhibitor, single point].
For `COc1cc2[nH]c(=O)c(C(=O)NCc3ccc(C)cc3)c(O)c2cc1OC`, the Potency was inconclusive [inhibitor, partial curve].
With `CCN(CC)CCNC(=O)c1ccc(NC(=O)COc2ccc3c(c2)CCC3)cc1` the Potency was inconclusive [inhibitor, single point].
With `Cc1cc(C)cc(NC(=O)C2CCN(C(=O)c3cnn(-c4ccccc4)c3-n3cccc3)CC2)c1` the Potency was active: 18.4 µM.
In the case of `O=C(CCCNS(=O)(=O)c1cccc2nsnc12)NCc1ccc(Cl)cc1`, the activity change, negative = growth inhibition is reported as inconclusive: -36.4% [inhibitor].
In the case of `COc1cc2nc(N3CCOCC3)nc(NC3CCN(Cc4ccccc4)CC3)c2cc1OC`, the Potency is reported as active: 15.8 µM.
For `CCN1CCN(Cc2c(O)ccc3c(=O)c(-c4ccc(OC)c(OC)c4)c(C)oc23)CC1`, the “activity change, negative = growth inhibition” value was inactive: -16.6%.
In the case of `O=C(Oc1ccc2c(c1)O/C(=C\c1ccncc1)C2=O)c1cccs1`, the Potency is reported as inconclusive [inhibitor, single point].
With `C#CCSc1nnc(C)c(C)n1` the “activity change, negative = growth inhibition” value was inactive: -11.7%.
With `COc1cc(CNc2nnnn2C)ccc1OCc1c(F)cccc1Cl` the “activity change, negative = growth inhibition” value was inactive: 7.15%.
In the case of `CS(=O)(=O)N(CC(=O)Nc1ccc(CC#N)cc1)c1ccc(C23CC4CC(CC(C4)C2)C3)cc1`, the Potency is reported as inconclusive [inhibitor, single point].
For `Cc1ccc(F)c([C@H]2[C@H]3C=CC[C@@H](C)[C@@H]3C(=O)N2Cc2ccccc2)c1`, the Potency was inconclusive [inhibitor, single point].
With `CC(C)(C)[C@@H]1COC(=O)[C@H](Cc2ccc(F)cc2)CC/C=C\C[C@@H](CC(=O)N(CCO)Cc2ccccc2)C(=O)N1` the Potency was active: 5.8 µM.
In the case of `CCOc1nc(NC(=O)NS(=O)(=O)Oc2cccc(Cl)c2)nc(-c2ccccc2)n1`, the “activity change, negative = growth inhibition” value is reported as inactive: -5.24%.
With `COc1ccccc1-c1nc2ccccc2c(=O)n1O` the “activity change, negative = growth inhibition” value was inactive: 2.4%.
In the case of `Cc1cccc(NS(=O)(=O)c2cc(C(=O)NCCC3=CCCCC3)ccc2Cl)c1`, the Potency is reported as inconclusive [inhibitor, single point].
For `CCCCCc1c(O)nc(SCC(=O)NCC2CCCO2)[nH]c1=O` (stereo not given), the Potency was inconclusive [inhibitor, single point].
With `O=Cc1cn(CCC(=O)O)nc1-c1cccc2ccccc12` the “activity change, negative = growth inhibition” value was inactive: -3.07%.
In the case of `Cc1nn(-c2ccccc2C(F)(F)F)c(=O)c2noc(C)c12`, the “activity change, negative = growth inhibition” value is reported as inactive: -24.7%.
With `CCN1CCN(C(c2cccs2)C(C)NC(=S)Nc2cccc(C)c2C)CC1` (stereo not given) the Potency was inconclusive [inhibitor, partial curve, poor fit].
In the case of `Cc1cccc(NC(=O)Cn2c(=O)oc3ccccc32)c1C`, the Potency is reported as inconclusive [inhibitor, single point].
For `C[C@@H]1CCCCO[C@H](CN(C)C(=O)CCC(F)(F)F)[C@@H](C)CN([C@H](C)CO)C(=O)c2cc(NC(=O)c3ccncc3)ccc2O1`, the Potency was inconclusive [inhibitor, single point].
For `CCCC(=O)C1=C(O)C(C(=O)OC)C(C)(C)CC1=Nc1ccc(N)cc1` (stereo not given), the “activity change, negative = growth inhibition” value was inactive: -18.6%.
With `CCOC(=O)C1CN(S(=O)(=O)c2ccc(OC)cc2)c2cc(CC(=O)OC)ccc2O1` (stereo not given) the Potency was inconclusive [inhibitor, single point].
With `COCCCNc1nccn2ccnc12` the “activity change, negative = growth inhibition” value was inactive: 11.5%.
For `CCN(CC(=O)NCc1cccs1)C(=O)c1ccc(S(=O)(=O)Nc2ccccc2OC)cc1`, the “activity change, negative = growth inhibition” value was inactive: -11.9%.
In the case of `COc1ccc(CN(C)C(=O)c2ccccc2Sc2ccccc2C#N)cc1OC`, the Potency is reported as active: 16.4 µM.
With `C#CCNC(=O)C1=C[C@@H](C2CCCCC2)C[C@@H](OCc2ccc(CO)cc2)O1` the Potency was inconclusive [inhibitor, single point].
With `O=C(CC1S/C(=N/N=C/c2cccs2)NC1=O)Nc1ccc(Cl)c(Cl)c1` (stereo not given) the Potency was inconclusive [inhibitor, single point].
For `CCOC(=O)N1CCC(NC(=O)c2cc(C(=O)Nc3ccc(F)cc3F)ccc2CO)CC1`, the “activity change, negative = growth inhibition” value was inactive: -24.9%.
In the case of `Cc1ccc(OCCOC(=O)c2nc3nccc(C)n3n2)cc1`, the Potency is reported as inconclusive [inhibitor, single point].
For `CS(=O)(=O)N1CCN(c2ccccc2NC(=O)c2ccc(-c3ccc(Br)cc3)o2)CC1`, the Potency was inconclusive [inhibitor, single point].
In the case of `COc1ccccc1N1CCN(C(=O)c2ccc(N(C)S(=O)(=O)c3ccccc3)cc2)CC1`, the Potency is reported as inconclusive [inhibitor, single point].
For `COc1ccc(CN2CCN(S(=O)(=O)c3ccc(F)cc3)CC2)c(OC)c1OC`, the Potency was inconclusive [inhibitor, partial curve, poor fit].
For `CCOc1ccccc1NC(=S)N1CCCc2ccccc21`, the “activity change, negative = growth inhibition” value was inactive: -29.1%.
For `C=C(C)c1cccc(C(C)(C)NC(=O)N2CCCCC2CC)c1` (stereo not given), the Potency was inconclusive [inhibitor, single point].
In the case of `COC(=O)[C@@]12CCCN1[C@H](c1ccc(-c3ccc(F)cc3)cc1)[C@H]1C(=O)N(C)C(=O)[C@H]12`, the Potency is reported as inconclusive [inhibitor, single point].
With `CCOc1ccc(-c2nnc(SCC(=O)Nc3cc(C)on3)o2)cc1` the Potency was active: 8.2 µM.
For `CCC(C)N(C(=O)COC(=O)c1nc(Cl)ccc1Cl)C1CCS(=O)(=O)C1` (stereo not given), the activity change, negative = growth inhibition was inconclusive: -2.78% [inhibitor].
With `Cc1cc(NS(=O)(=O)c2ccc(NC(=O)COc3ccc(Br)cc3)cc2)nc(C)n1` the Potency was active: 14.6 µM.
In the case of `Cc1noc(C)c1CSCC(=O)Nc1ccc(Br)cc1Cl`, the Potency is reported as inconclusive [inhibitor, single point].
With `O=C(NCCOc1ccccc1)c1cc2ccccc2o1` the “activity change, negative = growth inhibition” value was inactive: 0.451%.
With `COc1ccc(Br)cc1/C=N/NC(=O)C(c1ccncc1)N1CCOCC1` (stereo not given) the Potency was inconclusive [inhibitor, single point].
In the case of `O=C1COc2ccc(S(=O)(=O)CCC(=O)N3CCN(c4cccc(Cl)c4)CC3)cc2N1`, the Potency is reported as active: 10.3 µM.
In the case of `CC(C)c1cccc(C(C)C)c1OC(=O)[C@H]1OC(c2ccc(Br)cc2)=C[C@@H]1c1ccc(Br)cc1`, the Potency is reported as inconclusive [inhibitor, single point].
With `CCN(CC)S(=O)(=O)c1cccc(-c2nnc(SCC(N)=O)n2C)c1` the “activity change, negative = growth inhibition” value was inactive: 16.3%.
In the case of `Cc1ccc2nc(-c3ccccc3)c(CC3CCCCC3)n2c1`, the Potency is reported as inconclusive [inhibitor, single point].
With `CCCCCC(=O)Nc1nc(C)c(-c2csc(Nc3cc(Cl)ccc3C)n2)s1` the Potency was inconclusive [inhibitor, single point].
For `NS(=O)(=O)c1ccc(NC(=O)CSc2nc3ccccc3nc2N2CCOCC2)cc1`, the “activity change, negative = growth inhibition” value was inactive: 13.4%.
For `CC(=O)Oc1ccc(/C=N/NS(=O)(=O)c2ccccc2)cc1`, the Potency was inconclusive [inhibitor, single point].
For `Cc1ccc(S(=O)(=O)NC(=O)C2(C)CCN2C(=O)CC2CCCCC2)nc1` (stereo not given), the “activity change, negative = growth inhibition” value was inactive: 1.79%.
For `C(=C\c1nccc2c1[nH]c1ccccc12)/c1ccccc1`, the Potency was inconclusive [inhibitor, single point].
For `COc1cccc(CNC(=O)c2cccc(S(=O)(=O)N3CCN(c4ccc(F)cc4)CC3)c2)c1`, the Potency was inconclusive [inhibitor, single point].
For `Cc1cc(C)c2nc(NCCCNC(=S)NCCCN(C)C)c(C#N)cc2c1`, the Potency was active: 5.8 µM.
With `COc1ccc(NC(=O)CSc2nc3ccccc3c(=O)n2CCCN2CCC(C)CC2)c(OC)c1` the “activity change, negative = growth inhibition” value was inactive: -7.76%.
For `Cc1nn(CC(=O)NC2CCC(C)CC2)c(C)c1[N+](=O)[O-]` (stereo not given), the Potency was inconclusive [inhibitor, partial curve, poor fit].
With `Cc1nc2c(C)cccc2cc1C(=O)N/N=C/c1ccc(N(C)C)cc1` the Potency was active: 5.8 µM.
With `CCC(C)Sc1nc2c(c(=O)[nH]1)C(c1cccs1)C1=C(CCCC1=O)N2` (stereo not given) the Potency was inconclusive [inhibitor, single point].
For `COc1ccc(CNC(=O)C23CC4CC(CC(Br)(C4)C2)C3)cc1`, the “activity change, negative = growth inhibition” value was inactive: -4.72%.
In the case of `Nc1nc(SCC(=O)N2CCCc3ccccc32)n[nH]1`, the “activity change, negative = growth inhibition” value is reported as inactive: -6.08%.
For `CCOc1c2ccc(C(=O)N[C@H](C)C3CCCCC3)cc2nn1CCOC`, the Potency was active: 1.84 µM.
For `Cc1cccc2c(=O)cc(C)n(Cc3ccccc3)c12`, the Potency was inconclusive [inhibitor, single point].
For `Cc1cccnc1-c1cccc2c1OC(CNC(=O)C(=O)c1ccccc1)C2` (stereo not given), the Potency was inconclusive [inhibitor, single point].
With `CCN(CC)CCSc1nnc2c3cc(C)ccc3n(Cc3ccccc3)c2n1` the Potency was inconclusive [inhibitor, single point].
For `CCCCCCCCNS(=O)(=O)CCNCc1ccccc1OC`, the Potency was inconclusive [inhibitor, single point].
In the case of `COc1ccc(C2=NC3(CCCCCC3)N(CC(=O)Nc3cccc(Cl)c3)C2=O)cc1`, the Potency is reported as inconclusive [inhibitor, single point].
With `Cc1ccc(S(=O)(=O)N2C3CCCCC3O[C@H]2CC(=O)OCc2ccccc2)cc1` (stereo not given in full) the Potency was inconclusive [inhibitor, single point].
In the case of `COc1ccc2oc(C(=O)C3CC3)c(N)c2c1`, the Potency is reported as inconclusive [inhibitor, single point].
In the case of `CCSc1nc2c([nH]c3ccccc32)c(=O)n1-c1cccc(OC)c1`, the Potency is reported as inconclusive [inhibitor, single point].

— PubChem BioAssay AID686979 (National Center for Advancing Translational Sciences (NCATS), 2013)
% is set by controls: 0 for no effect and ±100 for the full control effect; potency is the fitted concentration of half-maximal effect; tags give direction and shape of the fitted curve.
